We go through 66 molecules from PubChem BioAssay AID1347073 (National Center for Advancing Translational Sciences (NCATS), 2019).

SMILES strings stand for the structures. Hit rate of the full screen: of about 45,000 compounds, about 200 (0.44%) were called active. Inconclusive results (about 7%) are left out. The call rests on the fitted dose curve; in most records, active means well fitted activation curve with a large enough effect; inconclusive means small, poorly fitted or top-dose-only effect; inactive means no such curve, though single readings can be large or run the other way. The list shows a part of the results.

This experiment can be described thus: qHTS of TDP-43 Inhibitors: NCGC Sytravon Library Screen. Further: 0% is about no effect; nearly all actives have a fitted effect of over 55% in size. As to conditions: yeast TDP-43 toxicity rescue, BacTiter-Glo growth, 24 h; series mostly up to 46.1 µM; growth rescue (activation): at the top concentration. Put shortly: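 TDP-43-expressing yeast, pregrown in raffinose, seeded at OD600 0.02 in galactose medium with compound for 24 hr at 30 deg C. Growth read by BacTiter-Glo luminescence, so rescue of toxicity appears as activation.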
In general terms: qHTS replaces the single test concentration by a dilution series.
On to `Fc1cccc(Nc2c3c(nc4ccccc24)CCC3)c1`, for which the “growth rescue (activation)” value is inactive: 6.4%. With `CN(C)CCNC(=O)COc1ccc(C23CC4CC(CC(C4)C2)C3)cc1`, the “growth rescue (activation)” value is inactive: 24.8%. For `O=C(COc1ccccc1-c1ccccc1)NCCN1C(=O)S/C(=C\c2cccnc2)C1=O`, the “growth rescue (activation)” value was inactive: -15.1%.

With `CC(=O)c1ccc(OC(=O)c2nc(-c3ccccc3)oc2C)cc1`, the “growth rescue (activation)” value was inactive: 8.74%. Under `CCCC(=O)NC(c1ccc(OC)c(OC)c1)c1cc(Cl)c2cccnc2c1O` (stereo unspecified) stands inactive: 4.27%; under `NNC(=O)CCn1c2ccccc2c2ccccc21`, inactive: 7.33%; under `Cc1sc2nc(CSc3ccccc3)nc(N3CCC(C(N)=O)CC3)c2c1C`, inactive: 11.9%. In the case of `COc1ccc(C(CC(=O)O)NS(=O)(=O)c2ccc3c(c2)NC(=O)CO3)cc1` (stereo unspecified), the “growth rescue (activation)” value was inactive: 5.59%. For `Cc1ccc(N(C(=O)CNC(=O)c2ccco2)C(C(=O)NC2CCCCC2)c2cccnc2)cc1F` (stereo unspecified), the “growth rescue (activation)” value was inactive: 5%. To `CC(=O)c1ccccc1N(C(=O)c1ccco1)C(C(=O)NC1CCCC1)c1ccc(C)cc1` (stereo unspecified) belongs inactive: 6.4%; to `COc1cc(/C(C)=N/Nc2ccc(C(=O)O)cc2)cc(OC)c1OC`, inactive: 29.4%; to `CN(C)C(CNC(=O)C1CCN(S(=O)(=O)c2ccc(Cl)cc2)CC1)c1ccccc1` (stereo unspecified), inactive: 5.16%. As for `CC(OC(=O)CCc1nc2ccccc2c(=O)[nH]1)C(=O)NC1CCCC1` (stereo unspecified), the “growth rescue (activation)” value was inactive: 1.86%. Under `N/C(=N/O)c1cccn1Cc1ccccc1[N+](=O)[O-]` stands inactive: 4.53%; under `COc1ccc(NC(=S)NCc2cccnc2)cc1`, inactive: -9.23%. Regarding `O=C(NCCN1CCOCC1)C1CC(=O)N(c2ccc(Cl)cc2)C1` (stereo unspecified), the “growth rescue (activation)” value was inactive: 2.02%. With `CCCN1C(=O)c2cc(C(=O)Nc3ccc(OC)cc3OC)ccc2C1Nc1ccc(OC)cc1OC` (stereo unspecified), the “growth rescue (activation)” value was inactive: 9.2%. `O=C(N/N=C/c1ccc(O)c2ccccc12)c1cccnc1`: the “growth rescue (activation)” value is inactive: 2.15%. For the molecule `CCc1cc(C(=O)N2CCN(c3ncc(C(F)(F)F)cc3Cl)CC2)sc1C`, the “growth rescue (activation)” value is inactive: 18.9%.

As to `Cc1ccc2c(c1)c(C1=NC(=S)NC1=O)c(O)n2C`, the “growth rescue (activation)” value was inactive: 0.0829%. Turning to `COc1ccc(N=C2SC(CC(=O)Nc3ccccc3F)C(=O)N2Cc2ccco2)cc1` (stereo unspecified), the “growth rescue (activation)” value was inactive: -2.34%. Regarding `Cc1sc2c(c1C)c(=O)n(-c1ccc(F)cc1)c(=O)n2CC(=O)NCc1ccco1`, the “growth rescue (activation)” value is inactive: 16.4%. Turning to `COc1ccc(N(C)S(=O)(=O)c2ccc(Cl)c(C(=O)NCCc3ccc(Cl)cc3)c2)cc1`, the “growth rescue (activation)” value is inactive: -11%. Consider `CN(C)S(=O)(=O)c1cccc(C(=O)NCCOC(=O)c2cc(F)c(F)cc2Cl)c1`, for which the “growth rescue (activation)” value was inactive: 6.31%. To `O=C(N/N=C/c1cc(Cl)ccc1O)c1ccc(Br)cc1` belongs inactive: -26.2%. Turning to `Cc1oc2c(O)c(O)ccc2c(=O)c1-c1ccc(Cl)cc1`, the “growth rescue (activation)” value is inactive: 2.79%. Take `O=C(c1ccccc1)c1c[nH]c(C(=O)NNc2cccc(Cl)n2)c1`: the “growth rescue (activation)” value is inactive: -2.05%.

Regarding `CCOc1cc(NC(=S)NCCCN2CCOCC2)c(OCC)cc1NC(=O)c1ccccc1`, the “growth rescue (activation)” value was inactive: 6.38%. Under `COc1ccc2c3c([nH]c2c1)C1(NCC3)C(=O)Nc2ccccc21` (stereo unspecified) stands inactive: 6.34%; under `Cc1ccc(NC(=O)c2ccc(OC(=O)COc3ccc(Cl)cc3C)cc2)cc1`, inactive: 7.56%; under `Cc1nn(-c2ccccc2)c(C)c1C(=O)OC(C)C(=O)NC1CCCCC1` (stereo unspecified), inactive: 17.5%.

As to `CC(=O)c1ccccc1NC(=O)c1ccc(OCc2c(C)noc2C)cc1`, the “growth rescue (activation)” value was inactive: -19.9%. With `CN(c1cccc(NC(=O)CN(c2ccc(Cl)c(Cl)c2)S(=O)(=O)c2ccccc2)c1)S(C)(=O)=O`, the “growth rescue (activation)” value is inactive: -6.72%. `O=C(Nc1ccc(Br)cc1)c1cc(-c2ccncc2)nc2ccccc12`: the “growth rescue (activation)” value was inactive: 25.6%. Consider `COc1ccc2c(c1)C=C(CN1CCN(C(C)C)C(CCO)C1)CO2` (stereo unspecified), for which the “growth rescue (activation)” value is inactive: 4.3%. In the case of `Nc1c(C(=O)N2CCCC2)sc2nc(-c3ccccc3)ccc12`, the “growth rescue (activation)” value was inactive: 14.3%. Regarding `COc1cc(/C=N/NC(=O)c2ccc([N+](=O)[O-])cc2Cl)cc(Br)c1O`, the “growth rescue (activation)” value is inactive: 16.9%. As for `Cc1cc(Cl)c2oc(C(=O)NCCC3CCCCO3)c(C)c2c1` (stereo unspecified), the “growth rescue (activation)” value is inactive: 21%. With `CS(=O)(=O)c1ccc2nc(NC(=O)c3ccc(=O)[nH]c3)sc2c1`, the “growth rescue (activation)” value was inactive: -4.43%. To `CC1CCCCC1NC(=O)COC(=O)c1c2c(nc3ccccc13)/C(=C\c1ccco1)CC2` (stereo unspecified) belongs inactive: 3.48%; to `Cc1cc(CNC(=O)C2CCC(=O)N(Cc3ccccc3F)C2)on1` (stereo unspecified), inactive: -16.6%; to `CC(C)(C)CN1CCNC(=O)C1CC(=O)NCCN1CCCc2ccccc21` (stereo unspecified), inactive: 5.13%. `Cc1cccn2c(=O)c3cc(C(=O)NC4CCCC4)c(=N)n(CCc4ccccc4)c3nc12`: the “growth rescue (activation)” value was inactive: -2.42%. To `CCn1c(SCC(=O)N/N=C/C=C\c2ccco2)nc2ccccc21` belongs inactive: -3.78%; to `CN(C)c1nc(N(C)C)n(C(=O)c2ccc(F)cc2)n1`, inactive: 9.88%; to `CC1CC1C(=O)Nc1nc2ccc(S(C)(=O)=O)cc2s1` (stereo unspecified), inactive: 5.7%.

In the case of `Cc1cccn2c(=O)c3cc(C(=O)NCc4ccco4)c(=N)n(CCc4ccccc4)c3nc12`, the “growth rescue (activation)” value was inactive: 7.8%.

As to `O=C(c1ccccc1)c1cccn1CC(=O)N1CCCCCC1`, the “growth rescue (activation)” value was inactive: 16.2%. For `NS(=O)(=O)c1ccc(CCNc2ccn3nc(-c4cccc(C(F)(F)F)c4)cc3n2)cc1`, the “growth rescue (activation)” value is inactive: 11.7%. As for `Cc1ccc(C(C(=O)NC2CCCCC2)N(Cc2ccccc2)C(=O)Cc2c[nH]c3ccccc23)o1` (stereo unspecified), the “growth rescue (activation)” value was inactive: 0.196%.

Turning to `COc1ccccc1/C=C(/C(=O)OCC(=O)Nc1cc(C)ccc1C)c1ccccc1`, the “growth rescue (activation)” value is inactive: 9.08%. Take `Cc1ccc(C)c(NC(=S)N2CCN(CCO)CC2)c1`: the “growth rescue (activation)” value is inactive: 6.94%. Under `Nn1c(Cc2cccc3ccccc23)n[nH]c1=S` stands inactive: 1.79%. `O=C(O)c1ccccc1OCC1CCCO1` (stereo unspecified): the “growth rescue (activation)” value is inactive: -1.13%. `CC(=O)N/C(=N\c1nc(C)cc(C)n1)Nc1ccccc1Cl`: the “growth rescue (activation)” value is inactive: -14.4%. On to `Cc1cc(C)c(/C=N/NC(=O)c2nnn(-c3nonc3N)c2CN2CCC(C)CC2)c(C)c1`, for which the “growth rescue (activation)” value is inactive: -4.13%. Under `CCCOc1ccc(C(=O)NNC(=S)NC(=O)c2cccs2)cc1` stands inactive: -5.11%.

As to `COc1cc(/C=C(\NC(=O)c2ccccc2)C(=O)N2CC3CC(C2)c2cccc(=O)n2C3)cc(OC)c1OC` (stereo unspecified), the “growth rescue (activation)” value is inactive: 2.44%. With `Cc1ccc(NC(=O)C=NOCC(=O)Nc2cc(C)cc(C)c2)cc1`, the “growth rescue (activation)” value was inactive: 22%. As for `O=C(CN1CCN(c2ccc(F)cc2)CC1)N(C1CCCC1)C1CCS(=O)(=O)C1` (stereo unspecified), the “growth rescue (activation)” value is inactive: 20.1%. Regarding `C=CCN(c1ccccc1OC)S(=O)(=O)c1cccc(C(=O)NCc2cccs2)c1`, the “growth rescue (activation)” value is inactive: 8.12%. With `Cc1ccc(/C=C/c2ccc3cccc(O)c3n2)s1`, the “growth rescue (activation)” value is inactive: 11.7%. With `N#Cc1c(N)n(-c2ccc(O)cc2)c2nc3ccccc3nc12`, the “growth rescue (activation)” value was inactive: -1.86%.

As to `CCCCCCCCCCOC(=O)Cn1c(COc2ccc(C)cc2)[n+](C)c2ccccc21`, the “growth rescue (activation)” value is inactive: -93.1%. In the case of `Cc1ccc2[nH]c(=O)c(CN(CC3CCCO3)C(=O)c3cccs3)cc2c1` (stereo unspecified), the “growth rescue (activation)” value was inactive: -12.6%.

On to `O=S(=O)(NCc1cccs1)NCc1ccccc1F`, for which the “growth rescue (activation)” value was inactive: 2.96%.
